In the supplement of paper PMC3334620:
In all, about 33,000 sequences were measured (“E-score (-0.5 to 0.5)”: median about -0.043, highest 2% from about 0.37 on). The list shows a part of the results.

Molecular target: T1, Upc2 (UniProt Q12151)
T1 sequence: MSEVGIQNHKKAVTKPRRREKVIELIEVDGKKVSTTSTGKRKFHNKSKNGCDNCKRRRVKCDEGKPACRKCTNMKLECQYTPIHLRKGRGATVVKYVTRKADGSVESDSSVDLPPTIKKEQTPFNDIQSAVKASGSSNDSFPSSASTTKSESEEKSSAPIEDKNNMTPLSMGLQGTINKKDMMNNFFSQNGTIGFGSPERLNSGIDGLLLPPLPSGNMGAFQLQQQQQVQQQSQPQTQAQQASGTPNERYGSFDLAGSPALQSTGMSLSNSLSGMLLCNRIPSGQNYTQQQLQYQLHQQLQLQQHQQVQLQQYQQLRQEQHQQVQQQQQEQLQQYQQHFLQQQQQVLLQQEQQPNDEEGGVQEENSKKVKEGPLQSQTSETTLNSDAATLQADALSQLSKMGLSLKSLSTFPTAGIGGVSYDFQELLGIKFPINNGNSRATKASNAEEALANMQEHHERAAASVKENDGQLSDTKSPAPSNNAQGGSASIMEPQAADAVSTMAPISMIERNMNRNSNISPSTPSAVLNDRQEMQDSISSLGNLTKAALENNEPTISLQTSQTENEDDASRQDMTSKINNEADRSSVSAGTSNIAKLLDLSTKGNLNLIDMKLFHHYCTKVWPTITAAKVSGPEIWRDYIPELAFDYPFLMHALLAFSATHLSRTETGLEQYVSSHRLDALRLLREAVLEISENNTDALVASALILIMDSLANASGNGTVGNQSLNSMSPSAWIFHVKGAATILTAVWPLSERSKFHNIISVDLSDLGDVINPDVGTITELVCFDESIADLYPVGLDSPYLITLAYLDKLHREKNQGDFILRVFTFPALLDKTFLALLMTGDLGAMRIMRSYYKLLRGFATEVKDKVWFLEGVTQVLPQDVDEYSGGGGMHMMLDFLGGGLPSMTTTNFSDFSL
Assay: PBM E-score (8-mer binding enrichment) (E-score (-0.5 to 0.5)); higher = stronger / more preferred TF binding; most listed sequences are background and not binding sites
Conditions: protein concentration: 200 nM; construct: GST-full length
Protocol: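 Universal 'all 10-mer' protein binding microarrays (Agilent AMADID 015681) probed with GST-tagged S. cerevisiae TFs (full-length or DBD) made by in vitro transcription/translation (PURExpress), about 100-200 nM. Bound TF was detected with fluorescent anti-GST. Each ungapped 8-mer (which stands for itself and its reverse complement) is scored by the PBM enrichment score (E-score), a modified Wilcoxon-Mann-Whitney statistic from -0.5 to +0.5, computed with the Universal PBM Analysis Suite. Scale: above 0.35 generally sequence-specific binding.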

| Sequence | PBM E-score |
| --- | --- |
| GACACAGA | -0.18 |
| CAGCCTAA | -0.0736 |
| AAGGGACT | -0.322 |
| AAGACTAT | -0.0464 |
| AAGATTCA | -0.144 |
| CCAACTAC | -0.0639 |
| CCGCTCAG | -0.0425 |
| CCATCGAG | 0.0899 |
| TATTAATA | 0.131 |
| CTCCTCGA | -0.024 |
| ACGGACAC | 0.11 |
| CAACACGG | -0.0862 |
| CTTCGCGC | 0.0794 |
| ACTCTTAC | 0.173 |
| AAGTGTAG | -0.281 |
| CGGTCCGA | 0.131 |
| TAGAAAGA | -0.0972 |
| AATAGGAG | -0.29 |
| GACGCAGC | -0.187 |
| AATTGAAG | -0.132 |
| AGAAGCGC | -0.146 |
| ACTAGGAG | -0.385 |
| AATAAGTA | 0.0339 |
| AGATTTGA | -0.0863 |
| GCGCCCTA | -0.0195 |

| Sequence | PBM E-score |
| --- | --- |
| ATCTTTCA | -0.0489 |
| AGTCTTGC | -0.144 |
| GGGGTTCA | -0.0912 |
| AGTCCAAC | -0.228 |
| ACAAGCAC | -0.0434 |
| GTGTACGA | 0.479 |
| AAAAAGTG | -0.0116 |
| CCGGTCGC | 0.111 |
| GCCCAGAC | -0.199 |
| CCTGAAAA | -0.0964 |
| ATAGTGAT | 0.144 |
| CTGGTTCA | -0.124 |
| AAGCCCTT | -0.212 |
| CATACCCA | -0.0148 |
| AGGGGACG | -0.158 |
| GCCGTGGA | -0.0179 |
| CGACACTA | 0.0796 |
| AGAACAAC | -0.106 |
| CATTTATA | 0.041 |
| AGGGTTGA | 0.0209 |
| AAATCCTT | -0.0627 |
| CACCGGTC | -0.252 |
| CAGTAGGA | -0.212 |
| TACCGGCA | 0.0135 |
| ATAACAGA | -0.0135 |

| Sequence | PBM E-score |
| --- | --- |
| ACCGACTG | 0.118 |
| AACAAAAC | 0.0702 |
| CACACGCG | 0.0196 |
| CCGGACGA | -0.275 |
| CCTTCAGA | -0.107 |
| AGACCGGG | -0.166 |
| CCCGGGCA | -0.169 |
| CTCGAATC | -0.159 |
| AGCGCTAG | -0.142 |
| CTACCTCA | -0.167 |
| CATGTCCG | -0.124 |
| ACGCAAGG | 0.0892 |
| CTACATTA | -0.0241 |
| CACAAACA | -0.0461 |
| AGAACACC | -0.039 |
| CCATTAGA | -0.236 |
| ATCTAATG | -0.0249 |
| ACACAAGA | -0.176 |
| GAGATTCC | -0.119 |
| AATCTTCC | -0.0871 |
| ATGTTAGG | -0.00946 |
| AGAAGTCT | -0.217 |
| CCCGTTCC | 0.327 |
| AAACTTAA | 0.05 |
| AGTTAGGG | -0.272 |

| Sequence | PBM E-score |
| --- | --- |
| ATTACGAC | 0.348 |
| GAGTCCCA | -0.0558 |
| AGACATGG | -0.0807 |
| GTTTGTGA | 0.0939 |
| AGACGTGA | -0.0748 |
| CGTCATGC | -0.202 |
| ATCAATGG | -0.234 |
| CCGATAGG | -0.0556 |
| AACTGAGC | -0.0377 |
| AAGGTCTC | -0.107 |
| TTCGCAAA | 0.208 |
| AACCCCTG | -0.157 |
| GCAACGAA | 0.314 |
| ATCTAAAC | 0.273 |
| AGTTGATC | 0.0263 |
| ACTGCCAA | 0.0299 |
| AGGAGAAT | -0.016 |
| AGAATATC | -0.145 |
| ACGAACGA | 0.435 |
| AACAGGTT | 0.0276 |
| AGTTCATG | -0.0839 |
| CAATCAGC | -0.123 |
| ATGACGTC | 0.0247 |
| AATTGATG | 0.107 |
| CCCAGCGC | -0.0828 |

| Sequence | PBM E-score |
| --- | --- |
| AATTGCAA | 0.0461 |
| CATGCGCC | -0.171 |
| GAATGCGA | 0.21 |
| CTATCCAG | -0.263 |
| AGTAGCTA | -0.0474 |
| AGCATACA | -0.0736 |
| GGTAGCAC | -0.313 |
| GTTTCGGA | 0.219 |
| AGGCCGTG | -0.207 |
| AAGTAATT | 0.133 |
| ATTATTTC | 0.0489 |
| CCTCCCAG | -0.234 |
| CACAACGC | 0.0768 |
| AGCCTTAT | 0.0162 |
| GGGATCAA | -0.0307 |
| GACGGACA | -0.00605 |
| CGGTGGAG | 0.171 |
| CTCAAGCC | -0.144 |
| GAGAGAGC | 0.13 |
| CGGCCGAA | -0.127 |
| AGTAGGCG | -0.0173 |
| CTATAGTA | -0.12 |
| CAACTCGA | -0.0457 |
| ACGACTGA | 0.299 |
| CGCCATGA | -0.18 |

| Sequence | PBM E-score |
| --- | --- |
| TACTGTAA | 0.194 |
| ATTGTCTC | -0.0724 |
| TGAAACCA | -0.186 |
| ATCCTTGA | -0.168 |
| CGAGATGC | 0.0652 |
| ACCCTCAA | -0.25 |
| GGGACCCA | -0.0504 |
| AATTTCCG | 0.184 |
| ATATCAGG | -0.118 |
| ATTTCAAA | -0.0405 |
| CACGCGCA | -0.0995 |
| AATAGCTG | -0.186 |
| GGTGGGAA | 0.116 |
| CCTCCGCC | -0.254 |
| ACACCAGT | -0.232 |
| AGAACCCA | 0.0683 |
| GCCCTGGA | -0.0731 |
| CCCGATGC | -0.0423 |
| ACACAAAC | 0.0907 |
| GCACTGAC | -0.227 |
| GAGGACCA | -0.0391 |
| GGCTATGA | -0.204 |
| TATTTGGA | -0.114 |
| CATAGGAA | 0.0328 |
| CCCAGACA | -0.0315 |

| Sequence | PBM E-score |
| --- | --- |
| CCACGAGA | -0.277 |
| AGTCCTCC | -0.174 |
| ATGGACCA | 0.0213 |
| AATCTAAT | -0.0562 |
| CGGCGGAA | -0.0281 |
| GTGTGTTA | 0.00098 |
| ATCCGTGC | 0.0414 |
| CGCGCAAC | -0.0708 |
| AAATGGGG | -0.302 |
| ATAGGACA | 0.0647 |
| CCACGTTA | 0.136 |
| ACTATCCA | -0.0745 |
| CTAGAGTA | -0.116 |
| ATCAATAG | -0.109 |
| CTCCCTCA | -0.176 |
| AACCCTTC | 0.0691 |
| AATTCGTC | 0.0116 |
| AGGCGCCG | 0.109 |
| AGTGTTAC | 0.107 |
| ACCGCATG | -0.0929 |
| ACGCTTGA | -0.0409 |
| ATTACCTG | -0.148 |
| CCGCAGCA | -0.267 |
| CTTTTAAA | 0.204 |
| AAGGCCGT | 0.244 |

| Sequence | PBM E-score |
| --- | --- |
| CATGCTCG | -0.0682 |
| CAAAGGGC | -0.362 |
| ATGGGACG | -0.0306 |
| AAATGGCA | -0.0352 |
| GTAGTATA | 0.219 |
| AAGGCTTA | 0.0687 |
| ATTCTAAA | 0.155 |
| CCAGCCGC | 0.0603 |
| AGATTAAA | -0.0115 |
| CCATTGAC | -0.043 |
| TCCGTTCA | 0.277 |
| AGAGTACG | 0.237 |
| GAGGGACA | 0.0576 |
| ATGTTAAT | 0.0354 |
| ATCGGAGC | -0.00581 |
| ATAAGGGA | -0.0288 |
| AACGTAAT | 0.101 |
| AGGCTCGC | 0.188 |
| CGAAGGAA | 0.126 |
| ATAAAGGC | -0.0848 |
| ACCCGTAC | 0.354 |
| AGAACTCA | -0.133 |
| AGTAGTGG | -0.164 |
| CGGGTCTA | 0.113 |
| ACTGACCC | -0.206 |

| Sequence | PBM E-score |
| --- | --- |
| AGGCGGGC | -0.214 |
| ACATGTCA | -0.121 |
| AATTAGAA | -0.0359 |
| TAGGATCA | -0.0207 |
| AACGCGAG | 0.21 |
| GACACTTA | 0.0114 |
| GCTGCAGA | -0.0488 |
| ATGTCAAA | 0.0208 |
| AAACACTT | 0.0888 |
| GCCCCGGA | -0.184 |
| GCAACCCA | -0.0298 |
| ACACGCAA | -0.00615 |
| GGCGCACC | -0.0291 |
| CCAAACCA | -0.154 |
| AGACGTAT | 0.259 |
| AGTGATCA | -0.0858 |
| GTTATTAA | 0.101 |
| AACTGCAG | -0.0258 |
| CAAAGTGA | -0.00649 |
